Measured values published in PubChem BioAssay (NCI).
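These data come from cells grown in 96-well plates and exposed to compound for 48 hours at five concentrations. Abbreviation: GI50, concentration required for 50% inhibition of growth. TGI denotes the concentration required for complete inhibition of growth.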 Peptide text beside a SMILES is read from it. * marks the point of attachment. Cbz = O=C(OCc1ccccc1)*; Boc = CC(C)(C)OC(=O)*; tBu = CC(C)(C)*

Each compound was assayed on NCI-H322M lung (assay: inhibition of tumour cell growth, NCI panel, 48 h).
`O=C(/C=C\n1cnc(-c2cc(C(F)(F)F)cc(C(F)(F)F)c2)n1)NNc1cnccn1` was tested, and the GI50 was 0.142 µM and the TGI was 12.5 µM.
`O=c1[nH]c(=O)n(C2OC(CO)C(O)C(O)C2O)cc1F` (stereo unspecified) showed a TGI of over 100 µM.
`Cc1ccc2[nH]c(C(=O)NN3C(=O)C(C)SC34CCCC(C)C4)c(-c3ccccc3)c2c1` (stereo unspecified) showed a GI50 of over 100 µM and a TGI of over 100 µM.
With `Cc1ccc2c(c1)CN(C(=O)CCC(=O)OCc1ccccc1)c1ccc(C)cc1CN2C(=O)CCC(=O)OCc1ccccc1` the TGI was over 100 µM.
`O=c1[nH]c(Nc2nc3ccccc3[nH]2)nc2c1CCC2` showed a TGI of over 100 µM.
With `NC(N)=N/N=C/c1c(-c2cccc([N+](=O)[O-])c2)nc2n1CCS2` the TGI was 40.8 µM.
With `CC(OC(C)(C)C)C(NC(=O)C(CCCCNC(=O)OC(C)(C)C)NC(=O)C(Cc1c[nH]c2ccccc12)NC(=O)C(Cc1ccccc1)NC(=O)OCc1ccccc1)C(=O)NC(Cc1ccccc1)C(=O)O` (stereo unspecified) (Cbz-FWK(Boc)T(tBu)F-OH; configuration not given here) the TGI was over 100 µM.
`O=C(Cc1ccccc1)N/N=C/c1ccccc1O` was tested, and the TGI was over 100 µM.
`CC(=O)OCCOCn1cnc2c(Cl)nc(Cl)nc21` showed a TGI of 61.3 µM.
`Cn1c2ccccc2c2c3[nH]c(=O)[nH]c(=O)c3c3c4ccccc4n(C)c3c21` showed a GI50 of 3.11 µM and a TGI of over 100 µM.
With `C=C1C(=O)O[C@H]2[C@H]1CC/C(COC(=O)c1cc3ccccc3s1)=C\CC[C@@]1(C)O[C@@H]21` the GI50 was 1.98 µM and the TGI was 4.68 µM.
Work on `C=C[C@H]1C[C@@H]2C[C@@H]3[C@H]4C/C=C\C(=O)NCCCC5NC(=O)C(=C(O)/C=C/[C@@H]4CC(=O)[C@H]3[C@@H]2[C@H]1C)C5=O` (stereo partly specified) yielded a GI50 of 1.58 µM and a TGI of 3.08 µM.
For `COc1ccc(/C(Cl)=C(\C=O)c2ccc([N+](=O)[O-])cc2)cc1`, the TGI was over 82 µM.
For `CC(C)(C)c1ccc(O)c(CN(Cc2cc(C(C)(C)C)ccc2O)c2ccccc2)c1`, the TGI was 31.2 µM.
`C=C(C)C1CCC2(C(=O)O)CCC3(C)C(CCC4C5(C)CCC(OC(=O)NCc6ccccc6)C(C)(C)C5CCC43C)C12` (stereo unspecified) gave a GI50 of 2.64 µM and a TGI of 32.4 µM.
